# Measurements: a collection of fitness landscapes (doi:10.1016/j.celrep.2020.107928)
# Over roughly 81,000 sequences, “one-hybrid fitness for binding NBS DNA” has its median near -0.1; the highest 2% begin near 0.36. The list shows a part of the results.
# B1: Caulobacter ParB omega fusion; a variant is named by its letters at X, in order, B8GW30 (parent)
# chain: MESVVVGEPGMSEGRRGLGRGLSALLGEVDAAPAQAPGEQLGGSREAPIEILQRNPDQPRRTFREEDLEDLSNSIREKGVLQPILVRPSPDTAGEYQIVAGERAWRAAQRAGLKTVPIMVRELDDLAVLEIGIIENVQRADLNVLEEALSYKVLMEKFERTQENIAQTIGKSXSHVANXMRLLXLPDEVQSYLVSGELTAXHARAIAAAADPVALAKQIIEGGLSVRETEALARKAPNLSAGKSKGGRPPRVKDTDTQALESDLSSVLGLDVSIDHRGSTGTLTITYATLEQLDDLCNRLTRGI
# Variants of: B1
# Test: one-hybrid fitness for binding NBS DNA (the Noc-binding site; scaled: cognate 1, non-cognate 0); higher = stronger binding
# Details: with NBS DNA site
# Procedure, shortened: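 Values were rescaled so that cognate is 1 and non-cognate is 0. Each is a fitness, the log change in a variant's read ratio to wild type from Illumina reads of plasmids before and after selection, with three replicate libraries pooled and variants under 10 reads dropped. Selection of the Caulobacter ParB libraries, four specificity codons randomised, used E. coli USO with a HIS3 reporter, site 19 bp from the promoter, on M9-minus-histidine with 0.1 mM IPTG and 5 mM 3-AT for 48 hours at 37°C.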
row,Variant,one-hybrid fitness for binding NBS DNA
1,WAIM,≤ 0.2
2,RQHH,≤ 0.2
3,PQGR,≤ 0.2
4,FMKT,≤ 0.2
5,ETTS,≤ 0.2
6,SSQL,≤ 0.2
7,GTDS,≤ 0.2
8,PHLA,≤ 0.2
9,VVEN,≤ 0.2
10,QPLH,≤ 0.2
11,NNHH,≤ 0.2
12,QVEW,≤ 0.2
13,SLWK,≤ 0.2
14,ALKW,≤ 0.2
15,REMI,≤ 0.2
16,KIFF,≤ 0.2
17,PSWT,≤ 0.2
18,AHAN,≤ 0.2
19,HACK,0.298
20,PFIG,≤ 0.2
21,TGMA,≤ 0.2
22,APPS,≤ 0.2
23,RKTC,0.275
24,LEVT,≤ 0.2
25,SLDP,≤ 0.2

row,Variant,one-hybrid fitness for binding NBS DNA
1,MIEP,≤ 0.2
2,HGQA,≤ 0.2
3,SNAD,≤ 0.2
4,NAPD,≤ 0.2
5,TEFD,≤ 0.2
6,EHES,≤ 0.2
7,MPPG,≤ 0.2
8,HSSR,≤ 0.2
9,QHMD,≤ 0.2
10,PAKV,≤ 0.2
11,QLSI,≤ 0.2
12,LVSI,≤ 0.2
13,CNVR,≤ 0.2
14,ACSN,≤ 0.2
15,NNLD,≤ 0.2
16,ESSC,≤ 0.2
17,SQEV,≤ 0.2
18,GPMM,≤ 0.2
19,IMRS,≤ 0.2
20,HPTI,≤ 0.2
21,GRWT,≤ 0.2
22,RTPP,≤ 0.2
23,ALTS,≤ 0.2
24,KING,≤ 0.2
25,QVGD,≤ 0.2

row,Variant,one-hybrid fitness for binding NBS DNA
1,TCNG,≤ 0.2
2,PCPE,≤ 0.2
3,NTGG,≤ 0.2
4,GGRW,≤ 0.2
5,RSAG,≤ 0.2
6,YGHG,≤ 0.2
7,QKRS,0.677
8,AAKR,0.205
9,WMVR,≤ 0.2
10,TIQV,≤ 0.2
11,FEPR,≤ 0.2
12,KYHG,≤ 0.2
13,WSPP,≤ 0.2
14,YLLC,≤ 0.2
15,SSSL,≤ 0.2
16,PNHL,≤ 0.2
17,TKDM,≤ 0.2
18,TKDH,≤ 0.2
19,RLIV,≤ 0.2
20,IKTN,≤ 0.2
21,YDNG,≤ 0.2
22,TDTF,≤ 0.2
23,EYDG,≤ 0.2
24,GGPE,≤ 0.2
25,YTVR,≤ 0.2

row,Variant,one-hybrid fitness for binding NBS DNA
1,MLGG,≤ 0.2
2,CVKY,≤ 0.2
3,CMMC,≤ 0.2
4,PDDE,≤ 0.2
5,QNNY,≤ 0.2
6,CNLM,≤ 0.2
7,GCIF,≤ 0.2
8,NFWT,≤ 0.2
9,IDCY,≤ 0.2
10,TFRT,≤ 0.2
11,VDRC,≤ 0.2
12,VVGV,≤ 0.2
13,IKQG,≤ 0.2
14,SSYT,≤ 0.2
15,PQNN,≤ 0.2
16,KIMG,≤ 0.2
17,TDNW,≤ 0.2
18,AAYS,≤ 0.2
19,TNRF,≤ 0.2
20,YSLF,≤ 0.2
21,ILGR,≤ 0.2
22,NFRE,≤ 0.2
23,EGLT,≤ 0.2
24,WCGS,≤ 0.2
25,TGAC,≤ 0.2

row,Variant,one-hybrid fitness for binding NBS DNA
1,VLCC,≤ 0.2
2,PSRL,≤ 0.2
3,TMTC,≤ 0.2
4,RQGE,≤ 0.2
5,VWIQ,≤ 0.2
6,HHIV,≤ 0.2
7,CWAR,≤ 0.2
8,APRL,≤ 0.2
9,AIMV,≤ 0.2
10,FSQC,≤ 0.2
11,ALNE,≤ 0.2
12,QLAI,≤ 0.2
13,QDAG,≤ 0.2
14,PGMQ,≤ 0.2
15,MVSI,≤ 0.2
16,TNTC,≤ 0.2
17,MEYL,≤ 0.2
18,QQYA,0.303
19,GLPQ,≤ 0.2
20,AAIT,≤ 0.2
21,WMQC,≤ 0.2
22,FTQF,≤ 0.2
23,ASTW,≤ 0.2
24,WTVH,≤ 0.2
25,RSHV,≤ 0.2

row,Variant,one-hybrid fitness for binding NBS DNA
1,MTCT,≤ 0.2
2,QRAL,0.272
3,TLIM,≤ 0.2
4,DNCS,≤ 0.2
5,DSIQ,≤ 0.2
6,PQSI,≤ 0.2
7,LATM,≤ 0.2
8,HKAT,≤ 0.2
9,DWHG,≤ 0.2
10,RFPV,≤ 0.2
11,YTAR,≤ 0.2
12,RVIC,≤ 0.2
13,EPIG,≤ 0.2
14,RDTC,≤ 0.2
15,YRVT,≤ 0.2
16,ALVM,≤ 0.2
17,NGQK,≤ 0.2
18,CPSL,≤ 0.2
19,RWWL,≤ 0.2
20,PAWL,≤ 0.2
21,SHEI,≤ 0.2
22,TKIH,≤ 0.2
23,CFTK,≤ 0.2
24,FATM,≤ 0.2
25,MLQC,≤ 0.2

row,Variant,one-hybrid fitness for binding NBS DNA
1,RLRF,≤ 0.2
2,KFHT,≤ 0.2
3,YPRA,≤ 0.2
4,KWTS,≤ 0.2
5,LMPT,≤ 0.2
6,HAMR,≤ 0.2
7,TNEY,≤ 0.2
8,RTKP,≤ 0.2
9,YTGS,≤ 0.2
10,YKMT,≤ 0.2
11,DSHV,≤ 0.2
12,GRPH,≤ 0.2
13,IYCG,≤ 0.2
14,THSG,≤ 0.2
15,KRIG,≤ 0.2
16,LDQD,≤ 0.2
17,QKQA,0.34
18,SPSG,≤ 0.2
19,VRTM,≤ 0.2
20,WMSR,≤ 0.2
21,PGDH,≤ 0.2
22,RSVP,≤ 0.2
23,PESK,≤ 0.2
24,GHSM,≤ 0.2
25,DRPG,≤ 0.2

row,Variant,one-hybrid fitness for binding NBS DNA
1,HTTH,≤ 0.2
2,GMWT,≤ 0.2
3,QQTN,≤ 0.2
4,HACS,≤ 0.2
5,GIAH,≤ 0.2
6,HHRG,≤ 0.2
7,CYTR,≤ 0.2
8,YPMY,≤ 0.2
9,LILQ,≤ 0.2
10,CPAF,≤ 0.2
11,SKQV,≤ 0.2
12,KHSF,≤ 0.2
13,PFPE,≤ 0.2
14,AGAW,≤ 0.2
15,DRYG,≤ 0.2
16,PEGT,≤ 0.2
17,DLDA,≤ 0.2
18,LNTR,≤ 0.2
19,LGSW,≤ 0.2
20,CTHV,≤ 0.2
